Test [1] addresses Rio2-TAP (S. cerevisiae) (UniProt P40160). As to the kind of experiment: co-IP; Rio2-TAP purified with lysis buffer of 50 mM NaCl; calmodulin-sepharose eluate, Western blot. Background: Immunoblotting shows a protein as a band on a membrane.
Test [2] shares this target. As to the kind of experiment: co-IP; Rio2-TAP purified with lysis buffer of 100 mM NaCl; calmodulin-sepharose eluate, Western blot.
Test [3] has as its target T1, Arx1-TAP (S. cerevisiae) (UniProt Q03862).
T1 sequence: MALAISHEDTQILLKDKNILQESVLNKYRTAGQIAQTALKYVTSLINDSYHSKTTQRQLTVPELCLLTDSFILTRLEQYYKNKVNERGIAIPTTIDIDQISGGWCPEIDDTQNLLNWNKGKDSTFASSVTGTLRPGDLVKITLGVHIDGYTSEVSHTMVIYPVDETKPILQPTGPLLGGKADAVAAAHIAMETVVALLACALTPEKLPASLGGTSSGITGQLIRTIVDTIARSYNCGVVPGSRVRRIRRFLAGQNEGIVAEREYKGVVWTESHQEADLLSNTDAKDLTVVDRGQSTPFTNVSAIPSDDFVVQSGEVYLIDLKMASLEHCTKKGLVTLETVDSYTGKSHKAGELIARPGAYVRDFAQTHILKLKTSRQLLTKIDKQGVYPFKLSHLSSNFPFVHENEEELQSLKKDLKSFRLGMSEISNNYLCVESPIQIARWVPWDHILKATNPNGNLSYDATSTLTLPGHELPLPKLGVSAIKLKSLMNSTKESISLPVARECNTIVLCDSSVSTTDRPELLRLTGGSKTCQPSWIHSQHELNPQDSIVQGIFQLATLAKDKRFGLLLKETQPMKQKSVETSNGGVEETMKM
As to the kind of experiment: co-IP; tandem affinity purification (TAP) of pre-ribosomal particles via TAP-tagged bait from yeast lysate; lysis buffer 50 mM Tris-HCl pH 7.5, 75 mM NaCl, 1.5 mM MgCl2, 0.15% NP-40; calmodulin-sepharose eluates analysed by Western blot; also from slx9Δ, mex67Δloop and mtr2Δloop116-137 strains.

Protein sequences, listed by entry. Tags and fused reporters are not part of them.
UniProt P40160: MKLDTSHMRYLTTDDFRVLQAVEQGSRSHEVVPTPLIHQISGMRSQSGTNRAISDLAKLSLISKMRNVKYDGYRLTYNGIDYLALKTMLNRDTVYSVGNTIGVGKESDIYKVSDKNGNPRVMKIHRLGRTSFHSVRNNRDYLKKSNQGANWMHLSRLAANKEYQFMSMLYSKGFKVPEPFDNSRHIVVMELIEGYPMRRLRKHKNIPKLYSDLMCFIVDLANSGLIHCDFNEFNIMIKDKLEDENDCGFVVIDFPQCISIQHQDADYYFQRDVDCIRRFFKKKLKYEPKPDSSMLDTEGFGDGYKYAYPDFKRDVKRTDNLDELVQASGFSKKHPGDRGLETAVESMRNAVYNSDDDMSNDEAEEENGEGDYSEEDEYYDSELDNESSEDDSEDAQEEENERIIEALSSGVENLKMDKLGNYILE

The target of test [4] is T2, Enp1-TAP (S. cerevisiae) (UniProt P38333).
T2 sequence: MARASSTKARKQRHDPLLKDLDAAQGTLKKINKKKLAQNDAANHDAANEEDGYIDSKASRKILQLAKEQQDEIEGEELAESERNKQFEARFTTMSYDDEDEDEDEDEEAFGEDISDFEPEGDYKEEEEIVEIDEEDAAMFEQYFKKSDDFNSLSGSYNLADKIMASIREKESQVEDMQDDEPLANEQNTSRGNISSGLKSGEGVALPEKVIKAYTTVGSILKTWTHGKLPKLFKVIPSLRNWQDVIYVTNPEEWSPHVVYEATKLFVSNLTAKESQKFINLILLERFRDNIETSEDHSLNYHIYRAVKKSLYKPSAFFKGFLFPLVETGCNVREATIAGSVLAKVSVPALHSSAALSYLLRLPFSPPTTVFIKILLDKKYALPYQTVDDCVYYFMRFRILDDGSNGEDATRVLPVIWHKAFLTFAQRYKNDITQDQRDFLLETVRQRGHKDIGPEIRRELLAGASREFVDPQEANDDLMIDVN
The test is described as above.

Test [5] deals with T3, Hrr25-TAP (S. cerevisiae) (UniProt P29295).
T3 sequence: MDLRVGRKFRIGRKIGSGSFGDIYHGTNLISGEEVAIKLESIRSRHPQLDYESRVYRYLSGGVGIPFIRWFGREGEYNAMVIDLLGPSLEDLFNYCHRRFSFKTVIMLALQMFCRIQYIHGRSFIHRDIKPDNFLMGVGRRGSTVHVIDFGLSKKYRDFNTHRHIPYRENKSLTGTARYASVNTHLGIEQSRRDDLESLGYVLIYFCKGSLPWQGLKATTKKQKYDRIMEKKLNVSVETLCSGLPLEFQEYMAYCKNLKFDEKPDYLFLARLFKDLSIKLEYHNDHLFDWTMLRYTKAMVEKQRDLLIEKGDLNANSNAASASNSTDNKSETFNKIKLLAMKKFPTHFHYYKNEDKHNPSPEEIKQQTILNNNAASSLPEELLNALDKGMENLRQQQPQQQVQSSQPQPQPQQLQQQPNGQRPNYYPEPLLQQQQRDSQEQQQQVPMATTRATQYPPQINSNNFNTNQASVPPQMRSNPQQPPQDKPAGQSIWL
Described as above.

In test [6] the target is T4, Noc4-TAP (S. cerevisiae) (UniProt Q06512).
T4 sequence: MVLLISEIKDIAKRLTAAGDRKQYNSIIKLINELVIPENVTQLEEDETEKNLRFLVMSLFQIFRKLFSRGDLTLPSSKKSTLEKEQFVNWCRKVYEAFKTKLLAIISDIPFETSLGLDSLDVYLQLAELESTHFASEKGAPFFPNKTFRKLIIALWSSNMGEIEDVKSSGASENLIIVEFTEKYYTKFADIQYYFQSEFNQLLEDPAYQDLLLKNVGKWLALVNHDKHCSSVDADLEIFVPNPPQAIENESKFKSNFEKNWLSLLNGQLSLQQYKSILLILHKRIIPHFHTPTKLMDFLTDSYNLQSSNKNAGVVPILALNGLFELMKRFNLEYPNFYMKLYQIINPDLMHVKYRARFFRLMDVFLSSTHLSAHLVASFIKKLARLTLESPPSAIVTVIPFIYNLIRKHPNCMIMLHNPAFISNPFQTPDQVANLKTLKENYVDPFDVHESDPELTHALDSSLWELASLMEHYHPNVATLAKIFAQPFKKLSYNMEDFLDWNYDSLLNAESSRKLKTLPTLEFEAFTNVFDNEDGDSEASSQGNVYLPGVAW
The description is as above.

The target of test [7] is Rio2-TAP (S. cerevisiae) (UniProt P40160). The test is described as above.

Results are given in words; binding and its absence hold for the method and conditions named. In cells and extracts the contact can be indirect. Some entries that bind do so weakly or less than the wild type.

B1: Mex67-Mtr2 (complex, UniProt Q99257 1-599; P34232 1-184)
chain 1: MSGFHNVGNINMMAQQQMQQNRIKISVRNWQNATMNDLINFISRNARVAVYDAHVEGPLVIGYVNSKAEAESLMKWNGVRFAGSNLKFELLDNNGASAGTSDTISFLRGVLLKRYDPQTKLLNLGALHSDPELIQKGVFSSISTQSKMFPAMMKLASTEKSLIVESVNLADNQLKDISAISTLAQTFPNLKNLCLANNQIFRFRSLEVWKNKFKDLRELLMTNNPITTDKLYRTEMLRLFPKLVVLDNVIVRDEQKLQTVYSLPMKIQQFFFENDALGQSSTDFATNFLNLWDNNREQLLNLYSPQSQFSVSVDSTIPPSTVTDSDQTPAFGYYMSSSRNISKVSSEKSIQQRLSIGQESINSIFKTLPKTKHHLQEQPNEYSMETISYPQINGFVITLHGFFEETGKPELESNKKTGKNNYQKNRRYNHGYNSTSNNKLSKKSFDRTWVIVPMNNSVIIASDLLTVRAYSTGAWKTASIAIAQPPQQQASVLPQVASMNPNITTPPQPQPSVVPGGMSIPGAPQGAMVMAPTLQLPPDVQSRLNPVQLELLNKLHLETKLNAEYTFMLAEQSNWNYEVAIKGFQSSMNGIPREAFVQF
chain 2: MNTNSNTMVMNDANQAQITATFTKKILAHLDDPDSNKLAQFVQLFNPNNCRIIFNATPFAQATVFLQMWQNQVVQTQHALTGVDYHAIPGSGTLICNVNCKVRFDESGRDKMGQDATVPIQPNNTGNRNRPNDMNKPRPLWGPYFGISLQLIIDDRIFRNDFNGVISGFNYNMVYKPEDSLLKI
Take B1: the binding entry in test [1] is listed as “binds”; in test [2], “no binding (condition: at 100 mM NaCl)”; in test [3] it was “binds”; in test [4], “binds”; in test [5], “binds”; in test [6], “binds”. In addition, the binding result in test [7] is “binds”.

B2: Mex67-Mtr2Δloop116-137 (complex, UniProt Q99257 1-599; P34232 1-184)
chain 1: MSGFHNVGNINMMAQQQMQQNRIKISVRNWQNATMNDLINFISRNARVAVYDAHVEGPLVIGYVNSKAEAESLMKWNGVRFAGSNLKFELLDNNGASAGTSDTISFLRGVLLKRYDPQTKLLNLGALHSDPELIQKGVFSSISTQSKMFPAMMKLASTEKSLIVESVNLADNQLKDISAISTLAQTFPNLKNLCLANNQIFRFRSLEVWKNKFKDLRELLMTNNPITTDKLYRTEMLRLFPKLVVLDNVIVRDEQKLQTVYSLPMKIQQFFFENDALGQSSTDFATNFLNLWDNNREQLLNLYSPQSQFSVSVDSTIPPSTVTDSDQTPAFGYYMSSSRNISKVSSEKSIQQRLSIGQESINSIFKTLPKTKHHLQEQPNEYSMETISYPQINGFVITLHGFFEETGKPELESNKKTGKNNYQKNRRYNHGYNSTSNNKLSKKSFDRTWVIVPMNNSVIIASDLLTVRAYSTGAWKTASIAIAQPPQQQASVLPQVASMNPNITTPPQPQPSVVPGGMSIPGAPQGAMVMAPTLQLPPDVQSRLNPVQLELLNKLHLETKLNAEYTFMLAEQSNWNYEVAIKGFQSSMNGIPREAFVQF
chain 2: MNTNSNTMVMNDANQAQITATFTKKILAHLDDPDSNKLAQFVQLFNPNNCRIIFNATPFAQATVFLQMWQNQVVQTQHALTGVDYHAIPGSGTLICNVNCKVRFDESGRDKMGQDRPLWGPYFGISLQLIIDDRIFRNDFNGVISGFNYNMVYKPEDSLLKI
Regarding B2, the binding entry in test [4] and in test [7] was “no binding” each time.

B3: Mex67Δloop-Mtr2 (complex, UniProt Q99257 1-599; P34232 1-184)
chain 1: MSGFHNVGNINMMAQQQMQQNRIKISVRNWQNATMNDLINFISRNARVAVYDAHVEGPLVIGYVNSKAEAESLMKWNGVRFAGSNLKFELLDNNGASAGTSDTISFLRGVLLKRYDPQTKLLNLGALHSDPELIQKGVFSSISTQSKMFPAMMKLASTEKSLIVESVNLADNQLKDISAISTLAQTFPNLKNLCLANNQIFRFRSLEVWKNKFKDLRELLMTNNPITTDKLYRTEMLRLFPKLVVLDNVIVRDEQKLQTVYSLPMKIQQFFFENDALGQSSTDFATNFLNLWDNNREQLLNLYSPQSQFSVSVDSTIPPSTVTDSDQTPAFGYYMSSSRNISKVSSEKSIQQRLSIGQESINSIFKTLPKTKHHLQEQPNEYSMETISYPQINGFVITLHGFFEETGKSNNKLSKKSFDRTWVIVPMNNSVIIASDLLTVRAYSTGAWKTASIAIAQPPQQQASVLPQVASMNPNITTPPQPQPSVVPGGMSIPGAPQGAMVMAPTLQLPPDVQSRLNPVQLELLNKLHLETKLNAEYTFMLAEQSNWNYEVAIKGFQSSMNGIPREAFVQF
chain 2: MNTNSNTMVMNDANQAQITATFTKKILAHLDDPDSNKLAQFVQLFNPNNCRIIFNATPFAQATVFLQMWQNQVVQTQHALTGVDYHAIPGSGTLICNVNCKVRFDESGRDKMGQDATVPIQPNNTGNRNRPNDMNKPRPLWGPYFGISLQLIIDDRIFRNDFNGVISGFNYNMVYKPEDSLLKI
Take B3: the binding result in test [4] and in test [7] was “no binding” throughout.

B4: Slx9 (protein, UniProt P53251 1-210)
chain: MVAKKRNTLRSKVSARNSQNFGPDVANNGILDESYDIESDPRAFLHQPKETKKEKLLNRQNTFLSNLKGKSTLNDGIAANFDGISKSSIRRRKRKLREELKPRMQDLLTSLEQEKDLRGIIENSSKDMNNDDDIDMDSKIRFVDTKEMNLKKIEPGSVRIKKNQPNIRNQKGAKALAANETARFNQVLTNQDFQKNPFGALREVIKLQKQ
Regarding B4, the binding entry is “binds” in test [4], “binds weakly” in test [6] and “binds weakly” in test [7].

The record behind these values is PMC3431309.
